# Measurements published in PMC4336329 (PLoS ONE, 2015).
# Hit rate of the full screen: of about 310,000 compounds, about 2,200 (0.71%) showed an effect of 50% or more. Effects have a minus sign here. The list shows a part of the results.
# Biological target: human ether-à-go-go-related gene (hERG) potassium channel (human, UniProt Q12809)
# Experiment: primary screen, population patch clamp on CHO cells stably expressing hERG
# Sequence of human ether-à-go-go-related gene (hERG) potassium channel (Q12809 whole entry, looked up): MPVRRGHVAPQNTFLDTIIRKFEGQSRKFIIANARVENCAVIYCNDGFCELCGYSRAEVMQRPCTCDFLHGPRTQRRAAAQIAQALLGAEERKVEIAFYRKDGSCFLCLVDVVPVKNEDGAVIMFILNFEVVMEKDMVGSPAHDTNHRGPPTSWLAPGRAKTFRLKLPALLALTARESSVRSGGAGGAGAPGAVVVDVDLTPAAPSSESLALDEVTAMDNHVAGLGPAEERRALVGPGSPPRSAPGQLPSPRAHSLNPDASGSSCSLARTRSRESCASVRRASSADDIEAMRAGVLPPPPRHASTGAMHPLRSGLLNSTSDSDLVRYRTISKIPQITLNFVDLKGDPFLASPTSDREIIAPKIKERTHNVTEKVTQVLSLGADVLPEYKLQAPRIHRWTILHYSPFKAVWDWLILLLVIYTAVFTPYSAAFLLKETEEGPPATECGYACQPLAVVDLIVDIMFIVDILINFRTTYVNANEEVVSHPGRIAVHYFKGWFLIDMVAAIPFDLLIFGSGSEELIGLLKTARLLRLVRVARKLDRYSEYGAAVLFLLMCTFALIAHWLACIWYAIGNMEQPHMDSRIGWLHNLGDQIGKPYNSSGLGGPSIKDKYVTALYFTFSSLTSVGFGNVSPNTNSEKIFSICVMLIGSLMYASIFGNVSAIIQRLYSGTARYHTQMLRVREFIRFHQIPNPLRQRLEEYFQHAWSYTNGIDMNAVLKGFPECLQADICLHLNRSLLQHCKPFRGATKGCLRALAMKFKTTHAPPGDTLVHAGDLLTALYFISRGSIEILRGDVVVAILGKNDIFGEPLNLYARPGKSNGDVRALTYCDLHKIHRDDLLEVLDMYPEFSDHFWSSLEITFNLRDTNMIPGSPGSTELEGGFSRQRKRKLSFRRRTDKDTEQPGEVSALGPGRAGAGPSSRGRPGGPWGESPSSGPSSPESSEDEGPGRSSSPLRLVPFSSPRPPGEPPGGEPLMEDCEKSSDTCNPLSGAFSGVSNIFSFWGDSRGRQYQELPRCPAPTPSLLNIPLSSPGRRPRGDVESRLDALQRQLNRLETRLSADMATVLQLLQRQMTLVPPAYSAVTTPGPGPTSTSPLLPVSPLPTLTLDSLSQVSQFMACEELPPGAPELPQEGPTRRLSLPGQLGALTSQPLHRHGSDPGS
row,SMILES,"hERG current change (%, negative = inhibition) at 1uM [%]"
1,O=c1c2ccccc2c(C=Nc2ccc(S(=O)(=O)N3CCCCC3)cc2)c(O)n1-c1ccc(Cl)cn1,16.1
2,CCC[n+]1c(C)sc2c(OC)ccc(OC)c21.[I-],10.9
3,CC(NC(=O)C12CC3CC(C)(CC(C)(C3)C1)C2)c1ccncc1 (stereo not drawn),8.47
4,CC(NC(=O)C1CCC(CNc2c(N3CCOCC3)c(=O)c2=O)CC1)c1ccccc1 (stereo not drawn),-2.95
5,Cc1nnc(NC(=O)C2C3C=CC(O3)C2C(=O)O)s1 (stereo not drawn),-9.85
6,O=C(c1ccc(C(F)(F)F)cc1)C1CCCN(C2CCSCC2)C1 (stereo not drawn),-64.4
7,Cc1ccc(S(=O)(=O)N2CCCOC2CNC(=O)C(=O)NCc2cccs2)cc1 (stereo not drawn),4.49
8,CC(=O)OCCn1c2nc(=O)[nH]c(=O)c-2nc2cc(C)c(C)cc21,16.3
9,Cc1ccc(-c2cc(C(=O)Nc3sc4c(c3C(=O)NCc3ccco3)CCC4)[nH]n2)c(O)c1,10
10,CCc1nnc(NC(=O)CSc2nnc(-c3ccoc3C)n2-c2ccc(C)cc2)s1,-1.78
11,Cc1ccc(N2C(=O)CN(Cc3ccccc3)C2=S)cc1C,13
12,COc1ccc(NC(=O)CC23CC4CC(CC(Br)(C4)C2)C3)c(OC)c1,9.43
13,Cc1ccc(C(=O)c2ccccc2C(=O)OCC(=O)NC(C)(C)C)cc1,1.05
14,COCCOC(=O)c1c(C)oc2ccc(OC(=O)N(C)C)cc12,10.4
15,CCOc1ccc(N(CC(=O)Nc2ccccc2OCC)S(=O)(=O)c2c(C)noc2C)cc1,15
16,CCOc1ccc(NS(=O)(=O)c2cc3c4c(c2)CCN4C(=O)CC3)cc1,4.56
17,Cc1nc2ncnn2c(C)c1Cc1ccc(Cl)cc1F,9.45
18,N#Cc1cnn2c1nc(N1CCCCC1)c1ccccc12,7.55
19,CC(=O)N1CCN(c2ccc(NCc3ccc(F)cc3)cc2)CC1,11.5
20,COc1ccc(C2=NCC(=S)Nc3ccc(Cl)cc32)cc1Cl,0.867
21,O=C(CN1CCCCC1)Nc1nc(-c2ccccc2)cs1,7.21
22,CCN(CC)CCNC(=O)c1ccc(NC(=O)c2cc(-c3ccco3)nc3ccccc23)cc1,9.15
23,O=C(c1cc(COc2ccc(F)cc2F)on1)N1CCN(C2CCCC2)C(=O)C1,-1.86

row,SMILES,"hERG current change (%, negative = inhibition) at 1uM [%]"
1,CCOc1ccc(NC(=O)CN(c2ccc(C)cc2)S(=O)(=O)c2c(C)nn(C)c2C)cc1,8.67
2,COc1ccc(NC(=O)CCC(=O)c2cccs2)cc1Cl,15.4
3,O=C(CCNC(=O)c1ccc(Cl)cc1)NCC(c1ccco1)N1CCCCC1 (stereo not drawn),-10.6
4,COc1ccc(C2=NN(c3ccccc3)C(c3cccs3)C2)cc1 (stereo not drawn),7.59
5,Nc1c(C(=O)NCc2ccccc2)c2nc3ccccc3nc2n1CCCN1CCOCC1,0.733
6,CCCCc1nc(Cl)c(C#N)c2c1CCC2,9.36
7,O=C(Nc1ccc(F)cc1)c1cc(S(=O)(=O)Nc2ccc(F)cc2)cs1,-0.55
8,COC(=O)c1ccc(C23CC4(C2)[C@H](CN(Cc2ccc(-c5ccccc5)cc2)[C@@H]4c2ccccc2)C3c2ccccc2)cc1 (stereo partly drawn),14.3
9,Cc1ccc(CNC(=O)c2ccc(N(C)S(=O)(=O)c3ccccc3)cc2)cc1,6.26
10,COC(=O)[C@@H](NC(=O)NCc1ccccc1F)C(C)C,14.3
11,Cc1cc(C)c(C#N)c(N2CCN(c3ccc(F)cc3)CC2)n1,14.2
12,Nc1c(C(=O)c2ccco2)oc2ccccc12,9.01
13,COc1ccc(CNC(=O)C2CCC(CNS(=O)(=O)c3cccc4nsnc34)CC2)cc1 (stereo not drawn),14.6
14,Cc1ccc2c(c1)cc(CN(C(=O)N1CCOCC1)C1CCCC1)c1nnnn12,12.5
15,CCOC(=O)c1sc(NC(=O)c2ccc3nc[nH]c3c2)nc1C,13.4
16,CCCCc1cc(=O)oc2cc(C)cc(O)c12,3.43
17,CCn1nccc1C(=O)NC1=C(C#N)CCC1,17.2
18,O=C(CCCn1nnc2ccccc2c1=O)N[C@H](C(=O)O)c1ccccc1,13.3
19,CC1CCCCN1C(=O)c1cc2ccccc2cc1O (stereo not drawn),12.3
20,O=C(Nc1cccc(F)c1)c1ccc(CSc2ccccc2)o1,11.5
21,CC1(C)Cc2cccc(OCC(=O)OCC(=O)Nc3ccc(C(N)=O)cc3)c2O1,-8.66
22,Cc1c(OC(=O)c2ccc([N+](=O)[O-])cc2)c2c(c[n+]1C)COC(C)(C)OC2.[I-],7.45
